# Results taken from PubChem BioAssay AID588342 (National Center for Advancing Translational Sciences (NCATS), 2011).
# About 25,000 (6.9%) of roughly 360,000 compounds were called active. The shares of active, inactive and inconclusive entries below differ from those in the screen. Calls come from the whole dose curve; as a rule, active = well fitted inhibition curve with a large enough effect; inconclusive = small, poorly fitted or top-dose-only effect; inactive = flat fitted curve, though single readings scatter. A potency beside an inconclusive call is a rough fit, not a confirmed value.
# Biological target: Luciferin 4-monooxygenase (Photinus pyralis) (UniProt P08659)
# UniProt P08659, sequence (P08659 whole entry, looked up): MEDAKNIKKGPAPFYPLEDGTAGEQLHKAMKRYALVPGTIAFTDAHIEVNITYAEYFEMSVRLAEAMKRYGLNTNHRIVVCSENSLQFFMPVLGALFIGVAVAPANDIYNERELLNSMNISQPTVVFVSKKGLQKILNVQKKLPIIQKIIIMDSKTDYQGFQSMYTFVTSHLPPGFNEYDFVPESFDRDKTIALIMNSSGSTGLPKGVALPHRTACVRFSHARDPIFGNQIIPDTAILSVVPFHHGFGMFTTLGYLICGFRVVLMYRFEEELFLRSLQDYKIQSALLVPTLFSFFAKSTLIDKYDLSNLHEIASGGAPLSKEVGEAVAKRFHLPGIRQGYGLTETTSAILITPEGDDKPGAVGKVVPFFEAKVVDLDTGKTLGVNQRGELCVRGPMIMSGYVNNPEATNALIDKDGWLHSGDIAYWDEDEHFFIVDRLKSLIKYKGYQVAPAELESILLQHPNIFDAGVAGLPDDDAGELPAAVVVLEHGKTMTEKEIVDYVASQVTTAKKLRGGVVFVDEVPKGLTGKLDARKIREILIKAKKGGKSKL
# Experiment: qHTS profiling assay for firefly luciferase inhibitor/activator using purifed enzyme and Km concentrations of substrates (counterscreen for miR-21 project); note: nearly all actives have a fitted effect of over 55% in size
# Conditions: purified FLuc, luminescence inhibition; series mostly up to 57.5 µM
# How it was run: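 Purified P. pyralis luciferase, 10 nM final, with Km-level 10 uM D-luciferin and 10 uM ATP in 50 mM Tris acetate pH 7.5, 10 mM Mg acetate, 0.01% Tween-20, 0.05% BSA; 6-point qHTS titration about 60 µM downward; luminescence read.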
# Potency is the fitted concentration of half-maximal effect; tags give direction and shape of the fitted curve.
row,Compound,Potency
1,O=C1c2ccccc2C(=O)N1c1ccc(Cl)cc1,"inconclusive: 7.57 µM [inhibitor, partial curve, poor fit]"
2,COCC(C)NC(=O)CSc1ncnc2sc(-c3ccccc3)cc12 (stereo not drawn),"inconclusive: 26.9 µM [inhibitor, single point]"
3,Cc1ccc(C(C(=O)NC2CCCC2)N(Cc2ccc(F)cc2)C(=O)c2csnn2)o1 (stereo not drawn),inactive
4,CCn1c(=O)c2sccc2n2c(CCCC(=O)N3CCN(c4ccc(OC)cc4)CC3)nnc12,inactive
5,CC1=CC(C)=Nc2ccccc2N1,active: 16.9 µM
6,NC(=O)c1cccc(NC(=O)Nc2ccc(Cl)cc2)c1,"inconclusive: 1.69 µM [inhibitor, partial curve, poor fit]"
7,Cc1ccc(Nc2ncnc3c2cnn3-c2ccccc2)c(C)c1,active: 19 µM
8,COc1ccc(C(=O)N/C(=C/c2cccs2)c2nc3ccccc3[nH]2)cc1OC,"inconclusive: 37.9 µM [inhibitor, partial curve, poor fit]"
9,Clc1ccc(COn2nnc3ccccc32)c(Cl)c1,active: 3.79 µM
10,O=C(Nc1nnc(-c2ccc(Cl)cc2)o1)C1=COCCO1,"inconclusive: 26.9 µM [inhibitor, partial curve, poor fit]"
11,Cc1c2cnn(CC(=O)N3CCN(c4ccccc4)CC3)c(=O)c2c(C)n1Cc1ccc(F)cc1,"inconclusive: 21.3 µM [inhibitor, partial curve, poor fit]"
12,CCOc1ccc(-c2cccc(NC(=O)c3cccs3)c2)nn1,"inconclusive: 21.3 µM [inhibitor, partial curve]"
13,O=C(COc1ccc(Br)cc1Cl)NC(=O)NC1CCCC1,active: 9.53 µM
14,O=c1c2c(-c3ccccc3)csc2nc2c3ccccc3c(NCCN3CCOCC3)nn12,"inconclusive: 16.9 µM [inhibitor, partial curve]"
15,CC1(C)CC(=O)C2=C(C1)OC1=C(C(=O)CC(C)(C)C1)C2c1ccc(O)cc1O,"inconclusive: 12 µM [inhibitor, partial curve]"
16,CCN(CC)c1ccc(/C=N/Nc2nc(C)cc(C)n2)cc1,"inconclusive: 26.9 µM [inhibitor, single point]"
17,O=C(c1cc(-c2ccc(Cl)cc2)on1)N1CCCC1,active: 2.13 µM
18,COc1ccc(O)c(C(=O)CC(=O)c2ccccc2)c1,active: 16.9 µM
19,Cc1csc2ncc(C(=O)Nc3ccccc3F)c(=O)n12,"inconclusive: 7.57 µM [inhibitor, partial curve]"
20,Cc1ccc2c(Cn3cc(C(F)(F)F)cc(Cl)c3=O)cc(=O)oc2c1,inactive
21,Cc1ccccc1C(=O)NCCc1sc(-c2ccc(Cl)cc2)nc1C,"inconclusive: 16.9 µM [inhibitor, partial curve, poor fit]"
22,CC1CCC/C(=N\NC(=O)COc2ccccc2Cl)C1 (stereo not drawn),"inconclusive: 23.9 µM [inhibitor, partial curve, poor fit]"
23,Cc1[nH]n2c(=O)c3c(nc2c1-c1ccc(Cl)cc1)CCC3,inactive
24,N#Cc1c(-c2ccc(Cl)cc2)c2c([nH]c1=S)CCCC2,"inconclusive: 10.7 µM [inhibitor, partial curve, poor fit]"
25,CN(C)c1ccc(/C=N/NC(=O)CCC(=O)NCc2ccccc2)cc1,"inconclusive: 23.9 µM [inhibitor, single point]"

row,Compound,Potency
1,CCOc1ccc2nc(NC(=O)CSc3nnc(-c4ccncc4)n3CC3CCCO3)sc2c1 (stereo not drawn),active: 2.39 µM
2,COc1ccc(-c2nc(SCC(=O)NC3CCCC3)c(-c3ccc(C)cc3)[nH]2)cc1OC,"inconclusive: 26.9 µM [inhibitor, partial curve]"
3,Cc1ccoc1C(=O)Nc1cccc2ccccc12,"inconclusive: 23.9 µM [inhibitor, single point]"
4,COc1cccc(NC(=O)CCc2c(C)nc3ncnn3c2C)c1,inactive
5,Cc1noc(C)c1CSc1nc2ccccc2nc1NS(=O)(=O)c1ccc(Cl)cc1,"inconclusive: 33.8 µM [inhibitor, single point]"
6,O=C(COc1ccc(Br)cc1)Nc1ccncc1,"inconclusive: 21.3 µM [inhibitor, partial curve]"
7,Cc1ccccc1NC(=O)CCN1C(=O)c2ccccc2Sc2ncccc21,inactive
8,Cc1ccc(C)c(N2CCN(C(=O)c3cc(S(=O)(=O)N4CCOCC4)ccc3F)CC2)c1,inactive
9,CCc1ccc(Nc2nnc(-n3nc(C)cc3C)c3ccccc23)cc1,"inconclusive: 30.1 µM [inhibitor, single point]"
10,Cc1cc(C(=O)NCCC2=CCCCC2)c(C)o1,"inconclusive: 0.601 µM [inhibitor, partial curve]"
11,CC1CCCC(C)N1C(=O)c1cc(-c2cccs2)on1 (stereo not drawn),"inconclusive: 21.3 µM [inhibitor, single point]"
12,O=C(N/N=C/c1ccccn1)C12CC3CC(CC(C3)C1)C2,"inconclusive: 23.9 µM [inhibitor, partial curve]"
13,Cc1cccc(NC(=O)CNc2cc(C)ccc2C)c1,"inconclusive: 15.1 µM [inhibitor, partial curve, poor fit]"
14,Cc1cccc(CSC2=NN3CCCC(=O)N=C3S2)c1,"inconclusive: 37.9 µM [inhibitor, single point]"
15,O=C(Nc1ccc(Sc2ccc(Br)cc2)cc1)c1ccco1,"inconclusive: 26.9 µM [inhibitor, single point]"
16,O=C(CSc1ccc(Cl)cc1)OCC(=O)N1CCN(c2ccccc2)CC1,inactive
17,O=c1c2ccccc2nc2c3ccccc3c(NCc3cccnc3)nn12,"inconclusive: 23.9 µM [inhibitor, partial curve, poor fit]"
18,Cc1nc(C)c(C(=O)C2=C(O)C(=O)N(CCN(C)C)C2c2ccco2)s1 (stereo not drawn),inactive
19,Cc1nc(C)c(CCNS(=O)(=O)c2ccc(F)cc2)s1,inactive
20,O=S(=O)(Nc1cccc(-c2cn3ccsc3n2)c1)c1ccc(F)cc1,"inconclusive: 37.9 µM [inhibitor, single point]"
21,COc1ccc(OC)c(C(=O)COC(=O)c2c(OC)cccc2OC)c1,inactive
22,Cc1ccc(Cn2ccc(=O)c(OCc3ccccc3)c2C)cc1,"inconclusive: 21.3 µM [inhibitor, single point]"
23,CCOC(=O)C1CCN(C(=O)Nc2ccc(Cl)cc2Cl)CC1,"inconclusive: 26.9 µM [inhibitor, partial curve, poor fit]"
24,Cc1ccc(C2(C)NC(=O)N(CC(=O)Nc3ccccc3C(=O)NC3CCCC3)C2=O)cc1 (stereo not drawn),inactive
25,COc1ccc(/C=N/NS(C)(=O)=O)c(OC)c1,inactive

row,Compound,Potency
1,COc1ccccc1CNC(=O)C1COc2ccccc2O1 (stereo not drawn),"inconclusive: 30.1 µM [inhibitor, partial curve, poor fit]"
2,COc1cccc(/C=N/Nc2ncnc3scc(-c4ccccc4)c23)c1O,active: 21.3 µM
3,NS(=O)(=O)c1ccc(Nc2nc(-c3ccc4ccccc4c3)cs2)cc1,inactive
4,O=C(O)c1cccc(CSc2nnc(-c3ccc(Cl)cc3)o2)c1,active: 19 µM
5,CCn1c(/C=C/c2ccccc2C)nc2ccccc2c1=O,"inconclusive: 23.9 µM [inhibitor, single point]"
6,Cc1cc(NCc2ccccn2)nc2ccccc12,"inconclusive: 26.9 µM [inhibitor, single point]"
7,O=C(NNC(=O)c1ccccc1Br)c1cccs1,"inconclusive: 37.9 µM [inhibitor, partial curve, poor fit]"
8,O=C(COC(=O)c1ccc(O)cc1O)Nc1ccc2c(c1)OCCO2,active: 15.1 µM
9,CCOC(=O)c1sc(NC(=O)c2c(CC)noc2C)nc1C,"inconclusive: 26.9 µM [inhibitor, single point]"
10,COc1ccc(-c2cc(-c3ccccc3O)[nH]n2)cc1,active: 0.849 µM
11,COc1ccc(C(=O)Nc2scc(-c3ccc(Cl)cc3Cl)c2C(N)=O)cc1,active: 4.78 µM
12,O=C(/C=C/c1ccccc1)Nn1cnnc1,"inconclusive: 30.1 µM [inhibitor, single point]"
13,CCN(CC)CCNC(=O)c1cc(Nc2ccc(OC)c(OC)c2)nc2ccccc12,"inconclusive: 21.3 µM [inhibitor, partial curve]"
14,O=C(CSc1ncnc2ccccc12)NCC(=O)c1ccccc1,inactive
15,O=C(CNC(=O)OCc1ccccc1)Oc1cc2oc(=O)cc(-c3ccccc3)c2cc1Cl,"inconclusive: 10.7 µM [inhibitor, partial curve]"
16,CCn1cc(C(=O)OCC(=O)Nc2ccc(C(C)C)cc2)c(=O)c2ccc(C)nc21,"inconclusive: 26.9 µM [inhibitor, partial curve]"
17,O=c1oc2cc(O)ccc2cc1-c1ccccc1,active: 23.9 µM
18,Cc1c(C(=O)N2CCC2)oc2ccc(Br)cc12,"inconclusive: 26.9 µM [inhibitor, single point]"
19,COc1ccc2nc(SCC(=O)N(C)CC(=O)Nc3ccc(F)cc3)[nH]c2c1,"inconclusive: 37.9 µM [inhibitor, single point]"
20,CS(=O)(=O)N1CCN(C(=O)Cc2ccccc2Cl)CC1,inactive
21,Cc1cc(N(CCO)Cc2ccccc2)n2nc(-c3ccc(C(C)(C)C)cc3)nc2n1,"inconclusive: 12 µM [inhibitor, partial curve, poor fit]"
22,CCCCOC(=O)Nc1cccc(C(C)=O)c1,"inconclusive: 37.9 µM [inhibitor, single point]"
23,N/C(Cc1ccc(Cl)cc1Cl)=N\OC(=O)c1ccccc1F,"inconclusive: 33.8 µM [inhibitor, partial curve, poor fit]"
